Reference: PubChem BioAssay AID330 (DTP/NCI, 2004)
Inconclusive results and toxic doses are left out. For part of its entries the source gives two or more results. The list is limited to them. An entry can have further records. The records of an entry differ, and nothing given here explains why; some may be repeats, others may stem from another dose, organism or construct than stated.

Tested on: P388 leukemia ip, CD2F1 mice, survival T/C
Assay: NCI In Vivo Anticancer Drug Screen. Data for tumor model P388 Leukemia (intraperitoneal) in CD2F1 (CDF1) mice
Conditions: endpoint: median survival time, higher = longer survival

COc1cccc2c1C(=O)c1c(O)c3c(c(O)c1C2=O)CC(O)(C(=O)CO)CC3OC1CC(N)C(O)C(C)O1 (stereo not given) was tested, and the T/C (dose: 11.7 mg/kg/injection, schedule: Q01DX009 (ip), vehicle: saline) was 110 % of control and 165 % of control and the T/C (dose: 46.8 mg/kg/injection, schedule: Q01DX009 (ip), vehicle: saline) was 98 % of control and 153 % of control.

COc1cccc2c1C(=O)c1c(O)c3c(c(O)c1C2=O)C[C@@](O)(C(C)O)C[C@@H]3OC1CC(N2CCOCC2)C(O)C(C)O1 (stereo not given in full) was tested, and the T/C (dose: 200.0 micrograms/kg/injection, schedule: Q04DX003 (ip), vehicle: water) was 110 % of control and 153 % of control and the T/C (dose: 400.0 micrograms/kg/injection, schedule: Q04DX003 (ip), vehicle: water) was 115 % of control and 153 % of control.

In the case of COc1ccc(C(=O)N/N=C(\C)[C@]2(O)Cc3c(O)c4c(c(O)c3[C@@H](OC3CC(N)C(O)C(C)O3)C2)C(=O)c2c(OC)cccc2C4=O)cc1 (stereo not given in full), the T/C (dose: 8.0 mg/kg/injection, schedule: Q01DX009 (ip), vehicle: water) is reported as 120 % of control and 183 % of control.
